According to EP4603109A1, “ANTIBODY-DRUG CONJUGATE, PREPARATION METHOD THEREFOR, AND USE THEREOF” (priority 2022, dated 2024):

Legend:
[1] = system: human mammary squamous cancer cell HCC1806; conditions: cell binding, FACS Median PE
[2] = parameters: species or system cynomolgus monkeys; conditions: cynomolgus monkey, in vivo, iv, 50 mg/kg
[3] = system: human mammary squamous carcinoma cell HCC1806; conditions: endocytosis, pHrodo, 24 h, Median YL-1H
[4] = Repeated dose toxicity test; assay type: in vivo; conditions: cynomolgus monkeys
[5] = Hydrophilicity detection (TSKgel Butyl-NPR column); assay type: physicochemical; conditions: (retention time of sample - hydrophilic control)/(hydrophobic control - hydrophilic control); smaller = more hydrophilic
CD32a = molecular target: T1, CD32a (Homo sapiens, UniProt P12318); test: Binding affinity to Fc receptors by ForteBio; conditions: SA sensor, biotinylated receptor, 1:1 fitting
T1 sequence (P12318 34-317): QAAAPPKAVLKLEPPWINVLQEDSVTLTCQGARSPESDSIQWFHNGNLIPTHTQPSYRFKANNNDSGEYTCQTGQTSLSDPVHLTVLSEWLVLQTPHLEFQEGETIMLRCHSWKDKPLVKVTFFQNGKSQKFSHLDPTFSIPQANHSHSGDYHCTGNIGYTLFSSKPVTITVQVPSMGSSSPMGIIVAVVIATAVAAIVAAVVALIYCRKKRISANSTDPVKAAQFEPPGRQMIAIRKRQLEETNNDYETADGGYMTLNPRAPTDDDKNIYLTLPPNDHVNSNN

[6] = system: Human gastric cancer cells NCI-N87; test: Efficacy of different ADCs in NCI-N87 model; assay type: in vivo; conditions: NCI-N87 mouse, QW, twice; for TGI (%): VP42; for VP42 (mm^3, mean±SEM): tumor volume
[7] = system: human non-small cell lung cancer cell HCC827; test: Cell affinity by flow cytometry; conditions: cell binding, FACS Median PE
[8] = system: human gastric cancer cell NCI-N87; conditions: cell binding, FACS Median PE
[9] = system: human gastric cancer cell NCI-N87; conditions: endocytosis, pHrodo, 24 h, Median YL-1H
[10] = system: human breast squamous cell carcinoma cell HCC1806; test: Tumor growth inhibition in subcutaneous HCC1806 mouse CDX model; assay type: in vivo, Balb/cNude mice; conditions: 1 dose on Day 0
[11] = system: Human breast squamous carcinoma cell line HCC1806; test: Efficacy of different doses of ADCs in HCC1806 model; assay type: in vivo; conditions: HCC1806 mouse; for TGI (%): VP27
CHO-S-monkey B7-H3 = conditions: cell binding, FACS Median PE
rat B7-H3-his = molecular target: T2, rat B7-H3-his (Rattus norvegicus, UniProt Q7TPB4); test: Dynamic affinity by ForteBio (BLI); assay type: binding; conditions: Protein A sensor, 1:1 global fitting
T2 construct: His
T2 sequence (Q7TPB4 29-316): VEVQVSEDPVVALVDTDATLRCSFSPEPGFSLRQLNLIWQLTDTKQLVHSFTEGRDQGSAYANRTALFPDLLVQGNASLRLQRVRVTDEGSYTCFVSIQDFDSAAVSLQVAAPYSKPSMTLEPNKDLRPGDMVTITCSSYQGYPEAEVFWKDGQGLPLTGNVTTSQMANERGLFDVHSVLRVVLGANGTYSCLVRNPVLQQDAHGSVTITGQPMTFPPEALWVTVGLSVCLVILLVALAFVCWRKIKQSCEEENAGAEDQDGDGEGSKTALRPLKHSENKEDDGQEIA

CHO-S-rat B7-H3 = CHO-S-rat B7-H3 (Rattus norvegicus, UniProt Q7TPB4); conditions: cell binding, FACS Median PE
[12] = system: human colon cancer cell HT29; test: Cell affinity by flow cytometry; conditions: cell binding, FACS Median PE
CHO-S-human B7-H3-4Ig = CHO-S-human B7-H3-4Ig (Homo sapiens, UniProt Q5ZPR3); conditions: cell binding, FACS Median PE
CHO-S-human B7-H3-2Ig = CHO-S-human B7-H3-2Ig (Homo sapiens, UniProt Q5ZPR3); conditions: cell binding, FACS Median PE
[13] = system: Human breast squamous carcinoma cell line HCC1806; test: In vivo efficacy of different conjugates of 2#8890 in HCC1806 model; conditions: HCC1806 mouse; for TGI (%): VP52; for VP52(mm^3, mean±SEM): tumor volume
[14] = system: Human breast squamous carcinoma cell line HCC1806; test: In vivo efficacy of different ADCs in HCC1806 model; conditions: HCC1806 tumor-bearing mouse, 10 mg/kg i.v. once
[15] = system: Human colon cancer cells HT29; test: In vivo efficacy in HT29 model; conditions: HT29 tumor-bearing mouse, 10 mg/kg i.v., QW, twice
[16] = i.v. 30 mg/kg QW x2, then 50 mg/kg QW x2
[17] = 10 mg/kg i.v. once (DAR4 group)

Chain of CHO-S-human B7-H3-4Ig (Q5ZPR3 29-534): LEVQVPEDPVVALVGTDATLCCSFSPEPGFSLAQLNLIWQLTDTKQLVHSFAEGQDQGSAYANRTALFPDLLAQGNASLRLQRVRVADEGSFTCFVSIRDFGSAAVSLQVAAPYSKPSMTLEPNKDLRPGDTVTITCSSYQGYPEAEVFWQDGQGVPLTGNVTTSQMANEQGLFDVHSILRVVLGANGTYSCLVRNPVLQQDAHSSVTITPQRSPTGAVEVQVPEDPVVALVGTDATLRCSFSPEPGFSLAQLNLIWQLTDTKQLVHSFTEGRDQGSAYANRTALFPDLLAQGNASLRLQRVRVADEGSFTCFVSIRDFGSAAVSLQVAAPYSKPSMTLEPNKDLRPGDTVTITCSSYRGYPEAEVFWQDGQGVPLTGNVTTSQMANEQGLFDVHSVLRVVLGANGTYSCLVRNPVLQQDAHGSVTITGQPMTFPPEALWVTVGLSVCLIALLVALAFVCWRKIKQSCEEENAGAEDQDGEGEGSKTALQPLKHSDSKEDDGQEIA
Chain of CHO-S-human B7-H3-2Ig (Q5ZPR3 29-316 isoform Q5ZPR3-2 limits assumed): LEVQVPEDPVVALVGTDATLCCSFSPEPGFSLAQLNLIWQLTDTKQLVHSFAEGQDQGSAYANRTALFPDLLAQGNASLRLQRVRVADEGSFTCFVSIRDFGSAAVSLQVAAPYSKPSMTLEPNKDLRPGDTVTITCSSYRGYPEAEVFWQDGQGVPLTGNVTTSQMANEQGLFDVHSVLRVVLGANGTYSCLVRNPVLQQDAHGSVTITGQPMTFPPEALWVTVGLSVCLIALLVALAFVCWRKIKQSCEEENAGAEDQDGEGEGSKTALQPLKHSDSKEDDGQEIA

B1: ADC 9 (conjugate)
heavy: QVQLQESGPGLVQPSGTLSLTCAVSGGSDSSTNWWTWVRQSPGQGLEWIGEISPIGFTSYSPSLRSRVTISVDKSKTQFSLKLSSVTAADTAVYYCARDRLYFAFWGQGTLVTVSSASTKGPSVFPLAPSSKSTSGGTAALGCLVKDYFPEPVTVSWNSGALTSGVHTFPAVLQSSGLYSLSSVVTVPSSSLGTQTYICNVNHKPSNTKVDKKV[human IgG1 Fc with L234A L235A G237A (EU numbers) left out here]
light: EIVMTQSPATLSVSPGERATLSCRASQSVSSNLAWYQQKPGQAPRLLIYGASTRATGIPDRFSGSGSGTEFTLTISSLESEDFAVYYCQQYNNWPITFGQGTRLEIKRTVAAPSVFIFPPSDEQLKSGTASVVCLLNNFYPREAKVQWKVDNALQSGNSQESVTEQDSKDSTYSLSSTLTLSKADYEKHKVYACEVTHQGLSSPVTKSFNRGEC
EC50(ng/ml) HCC1806 [1]: 7.264 ng/mL
CL F obs [2]: 7044.87 mL/min/kg
EC50(ng/ml) HCC1806 [3]: 18.94 ng/mL
findings during the recovery period ([4]; after 30 mg/kg QW x2 and 50 mg/kg QW x2): local pigmentation and slight hair loss were also observed, and other changes showed a recovery trend
findings during the administration period [4, 16]: loss of appetite
haematology changes in female monkeys [4, 16]: WBC, NEUT, LYM and MONO decreased and FBG increased
haematology changes in male monkeys [4, 16]: FBG increased and RBC, HGB and HCT decreased
highest no serious toxicity dose (HNSTD) ([4]; i.v. 30 mg/kg once a week x2, then 50 mg/kg once a week x2): 50 mg/kg
Hydrophobicity value [5]: 0.99
KD (M) CD32a (CD32a): Not bond
TGI (%) ([6]; 5 mg/kg i.v.): 71.16** %
VP42 (mm^3, mean±SEM) ([6]; 5 mg/kg i.v.): 474.09±121.07 mm^3
EC50 (ng/ml) HCC827 [7]: 13.05 ng/mL
EC50(ng/ml) NCI-N87 [8]: 5.953 ng/mL
EC50(ng/ml) NCI-N87 [9]: 8.649 ng/mL
T/C (%) ([10]; Day 14, 3 mg/kg i.v.): 15.42%
TGI (%) ([10]; Day 14, 3 mg/kg i.v.): 98.50%
Tumor volume (mm^3) (x±SEM) ([10]; Day 14, 3 mg/kg i.v.): 201.74±45.01 mm^3
TGI (%) ([11]; 0.5 mg/kg i.v. once): 53.66%
TGI (%) ([11]; 5 mg/kg i.v. once): 156.56* * %
VP27 (mm^3, mean±SEM) ([11]; tumor volume, 5 mg/kg i.v. once): 75.12±27.55 mm^3
EC50 (ng/ml) CHOS-monkey B7-H3 (CHO-S-monkey B7-H3): 40.94 ng/mL
Rat B7-H3-his KD (M) (rat B7-H3-his): Not bond
EC50 (ng/ml) CHOS-rat B7-H3 (CHO-S-rat B7-H3): Not bond
EC50 (ng/ml) HT29 [12]: 5.656 ng/mL
EC50 (ng/ml) CHOS-B7-H3-4Ig (CHO-S-human B7-H3-4Ig): 45.96 ng/mL
EC50 (ng/ml) CHOS-B7-H3-2Ig (CHO-S-human B7-H3-2Ig): 41.34 ng/mL

B2: ADC 11 (conjugate)
heavy: QVQLQESGPGLVQPSGTLSLTCAVSGGSDSSTNWWTWVRQSPGQGLEWIGEISPIGFTSYSPSLRSRVTISVDKSKTQFSLKLSSVTAADTAVYYCARDRLYFAFWGQGTLVTVSSASTKGPSVFPLAPSSKSTSGGTAALGCLVKDYFPEPVTVSWNSGALTSGVHTFPAVLQSSGLYSLSSVVTVPSSSLGTQTYICNVNHKPSNTKVDKKV[human IgG1 Fc with L234A L235A G237A (EU numbers) left out here]
light: EIVMTQSPATLSVSPGERATLSCRASQSVSSNLAWYQQKPGQAPRLLIYGASTRATGIPDRFSGSGSGTEFTLTISSLESEDFAVYYCQQYNNWPITFGQGTRLEIKRTVAAPSVFIFPPSDEQLKSGTASVVCLLNNFYPREAKVQWKVDNALQSGNSQESVTEQDSKDSTYSLSSTLTLSKADYEKHKVYACEVTHQGLSSPVTKSFNRGEC
Hydrophobicity value [5]: 1.17
TGI (%) ([13]; 5 mg/kg i.v. once (DAR8 group)): 80.29* %
VP52(mm^3, mean±SEM) ([13]; 5 mg/kg i.v. once (DAR8 group)): 819.27±346.44 mm^3
TGI (%) ([6]; 5 mg/kg i.v.): 53.83* %
VP42 (mm^3, mean±SEM) ([6]; 5 mg/kg i.v.): 688.71±105.48 mm^3
T/C (%) ([10]; Day 14, 3.16 mg/kg i.v.): 29.12%
TGI (%) ([10]; Day 14, 3.16 mg/kg i.v.): 82.61%
Tumor volume (mm^3) (x±SEM) ([10]; Day 14, 3.16 mg/kg i.v.): 370.35±41.88 mm^3

B3: ADC 17 (conjugate)
heavy: QVQLQESGPGLVQPSGTLSLTCAVSGGSDSSTNWWTWVRQSPGQGLEWIGEISPIGFTSYSPSLRSRVTISVDKSKTQFSLKLSSVTAADTAVYYCARDRLYFAFWGQGTLVTVSSASTKGPSVFPLAPSSKSTSGGTAALGCLVKDYFPEPVTVSWNSGALTSGVHTFPAVLQSSGLYSLSSVVTVPSSSLGTQTYICNVNHKPSNTKVDKKV[human IgG1 Fc with L234A L235A G237A (EU numbers) left out here]
light: EIVMTQSPATLSVSPGERATLSCRASQSVSSNLAWYQQKPGQAPRLLIYGASTRATGIPDRFSGSGSGTEFTLTISSLESEDFAVYYCQQYNNWPITFGQGTRLEIKRTVAAPSVFIFPPSDEQLKSGTASVVCLLNNFYPREAKVQWKVDNALQSGNSQESVTEQDSKDSTYSLSSTLTLSKADYEKHKVYACEVTHQGLSSPVTKSFNRGEC
EC50 (ng/ml) HCC827 [7]: 8.054 ng/mL
T/C (%) ([10]; Day 14, 3.32 mg/kg i.v.): 25.40%
TGI (%) ([10]; Day 14, 3.32 mg/kg i.v.): 86.69%
Tumor volume (mm^3) (x±SEM) ([10]; Day 14, 3.32 mg/kg i.v.): 329.35±72.16 mm^3
Rat B7-H3-his KD (M) (rat B7-H3-his): Not bond
EC50 (ng/ml) HT29 [12]: 3.213 ng/mL

B4: ADC 3 (conjugate)
heavy: QVQLQESGPGLVQPSGTLSLTCAVSGGSDSSTNWWTWVRQSPGQGLEWIGEISPIGFTSYSPSLRSRVTISVDKSKTQFSLKLSSVTAADTAVYYCARDRLYFAFWGQGTLVTVSSASTKGPSVFPLAPSSKSTSGGTAALGCLVKDYFPEPVTVSWNSGALTSGVHTFPAVLQSSGLYSLSSVVTVPSSSLGTQTYICNVNHKPSNTKVDKKV[human IgG1 Fc with L234A L235A G237A (EU numbers) left out here]
light: EIVMTQSPATLSVSPGERATLSCRASQSVSSNLAWYQQKPGQAPRLLIYGASTRATGIPDRFSGSGSGTEFTLTISSLESEDFAVYYCQQYNNWPITFGQGTRLEIKRTVAAPSVFIFPPSDEQLKSGTASVVCLLNNFYPREAKVQWKVDNALQSGNSQESVTEQDSKDSTYSLSSTLTLSKADYEKHKVYACEVTHQGLSSPVTKSFNRGEC
Hydrophobicity value [5]: 0.93
TGI (%) [13, 17]: 75.85* %
VP52(mm^3, mean±SEM) [13, 17]: 969.56±326.50 mm^3
TGI (%) ([6]; 10 mg/kg i.v.): 38.67%
VP42 (mm^3, mean±SEM) ([6]; 10 mg/kg i.v.): 875.71±114.43 mm^3
TGI (%) ([14]; VP25): 91.02*** %
VP25(mm^3, mean±SEM) ([14]; tumor volume): 299.18±87.93 mm^3
TGI (%) ([15]; VP25): 64.14** %
VP25(mm^3, mean±SEM) ([15]; tumor volume): 1162.05±71.89 mm^3

Like-named read-outs stand apart in the source and are kept apart here. Marks after values point to notes of the source that are not given here.
